# Assay results: paper PMC6919601, “Identification of Plasmodium dipeptidyl aminopeptidase allosteric inhibitors by high throughput screening” (PLoS ONE, 2019)
# Values joined by “and” are separate entries in the source; they are usually repeats but may differ in a detail not shown here. Equal entries are not always repeated. The campaign covered roughly 110,000 compounds. About 230 (0.21%) showed an effect of 50% or more. Some of the results follow.
# Molecular target: DPAP1 (Plasmodium falciparum, UniProt Q8IIJ9)
# Sequence (Q8IIJ9 whole entry, looked up): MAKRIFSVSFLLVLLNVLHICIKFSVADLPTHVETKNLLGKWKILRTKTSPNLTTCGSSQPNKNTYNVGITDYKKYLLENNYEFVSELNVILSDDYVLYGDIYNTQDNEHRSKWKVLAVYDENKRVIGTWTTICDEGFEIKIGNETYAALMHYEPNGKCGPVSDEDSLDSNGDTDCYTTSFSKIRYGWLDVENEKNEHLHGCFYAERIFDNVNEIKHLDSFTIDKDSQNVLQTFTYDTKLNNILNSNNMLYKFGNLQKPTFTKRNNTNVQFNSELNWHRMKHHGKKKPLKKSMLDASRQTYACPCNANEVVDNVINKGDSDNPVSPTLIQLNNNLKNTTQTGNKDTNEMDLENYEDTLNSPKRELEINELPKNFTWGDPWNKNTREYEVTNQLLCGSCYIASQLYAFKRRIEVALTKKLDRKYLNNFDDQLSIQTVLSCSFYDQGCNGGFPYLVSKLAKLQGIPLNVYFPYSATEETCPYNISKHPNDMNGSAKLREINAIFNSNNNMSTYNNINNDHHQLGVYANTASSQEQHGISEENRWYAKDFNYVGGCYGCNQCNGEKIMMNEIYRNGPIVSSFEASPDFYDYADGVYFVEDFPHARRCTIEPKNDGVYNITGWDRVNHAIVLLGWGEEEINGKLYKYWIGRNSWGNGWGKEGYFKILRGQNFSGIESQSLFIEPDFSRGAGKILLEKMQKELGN
# Assay: primary screen, percent inhibition; read by cleavage of a fluorogenic dipeptide substrate; higher = more effect of the substance
# Design: species or system P. falciparum D10 trophozoite lysates; single well
# 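Further: 30 min substrate incubation versus DMSO and 10 µM JCP410 controls.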
row,Structure (SMILES),% Inhibition @ 10 uM
1,O=C(NC1CCC(NC(=O)c2ccco2)CC1)c1ccco1 (stereo not drawn),-7.98%
2,CCC1CCc2c(sc(NC(=O)c3cnccn3)c2C#N)C1 (stereo not drawn),-1.19%
3,COc1ccc(Br)cc1CNCCc1c[nH]c2ccccc12,-3.49%
4,O=C1c2ccccc2-c2nnc(-c3cccc(Br)c3)cc21,-0.736%
5,Cc1ccc(-c2cc(C(=O)NCc3cccnc3)c3ccccc3n2)cc1,-4.01%
6,COc1ccc(S(=O)(=O)N2CCN(c3ncc(C(F)(F)F)cc3Cl)CC2)cc1,6.17%
7,COCCCNC(=O)[C@H](Cc1c[nH]c2ccccc12)NC(=O)OCc1ccccc1,-2.14%
8,CCOC(=O)N1CCN(C(C)Cc2cccc(C(F)(F)F)c2)CC1 (stereo not drawn),-0.0648%
9,Cc1cc2nc(NC3=NCN(CCN4CCOCC4)CN3)nc(C)c2cc1C,-0.958%
10,CCC(C)(C)c1ccc(OCC(=O)Nc2ccc(C(=O)O)cc2)cc1,-5.57%
11,COc1ccc(OC)c(NC(=O)CN(c2ccc(C)c(Cl)c2)S(C)(=O)=O)c1,5.25%
12,O=C(CCCn1c(=O)c2sccc2n(Cc2ccccc2)c1=O)NCc1ccccc1,-3.12%
13,O=C(O)CCCCCNC(=O)c1cc2ccccc2cc1O,-1.06%
14,CCCCOC(=O)C(C)Nc1nnc(S)nc1O (stereo not drawn),4.66%
15,Cc1cc(C)c2nc(N3CCC(C(=O)NCCCN4CCC(N5CCCCC5)CC4)CC3)sc2c1,6.46%
16,CCOc1ccccc1C(=O)Nc1nc(C)c(C(=O)N(C)C)s1,-1.52%
17,CNC(=O)CCCCn1c(=S)[nH]c2c([nH]c3ccc(OC)cc32)c1=O,2.74%
18,Cc1cc(O)nc(SCC(=O)Nc2ccc(Cl)c(Cl)c2)n1,-8.41%
19,O=C(COCc1cc(-c2cccs2)on1)NCc1ccc2c(c1)OCO2,-1.86%
20,Sc1nnc2c(n1)[nH]c1ccccc12,38%
21,NC(=O)C(Cc1ccccc1)N1C(=O)C2C3C=CC(C3)C2C1=O (stereo not drawn),-2.28%
22,COc1ccc(N(CC(=O)Nc2ccc(C)c(C)c2)S(C)(=O)=O)c(OC)c1,-1.22%
23,O=c1sc2ccccc2n1CN1CCCCC1,-3.15%
24,CCOC(=O)C1=C(C)N=c2s/c(=C/c3ccc(Cl)cc3)c(=O)n2C1c1cccs1 (stereo not drawn),-2.27%

row,Structure (SMILES),% Inhibition @ 10 uM
1,O=C(Nc1ccccc1)c1ccc(CSc2ncccn2)cc1,-4.66%
2,Cc1ccc2nc(NC(=O)C3CCCN3S(=O)(=O)c3cccc4cccnc34)sc2c1 (stereo not drawn),0.981%
3,CC(=O)c1ccc(NC(=O)Nc2ccccc2)cc1,-2.66%
4,N#Cc1ccccc1Sc1ccccc1C(=O)Nc1ccc(Br)cn1,5.76%
5,COC(=O)C1=C(C)N=C(C)/C(=C(/O)OC)C1c1cn(-c2ccccc2)nc1-c1ccc(F)cc1 (stereo not drawn),-0.178%
6,CCOc1ccccc1-c1nc(-c2ccncc2)no1,0.032%
7,COc1ccc(N(CC(=O)N2CCN(c3ccccc3OC)CC2)S(C)(=O)=O)cc1Cl,1.84%
8,O=C1C2C3C=CC(CC3)C2C(=O)N1c1ccc(Cl)cc1 (stereo not drawn),3.65%
9,Cc1nc2ccc(C(=O)O)cc2c(O)c1CC=C(Cl)Cl,3.92%
10,N#C/C(C1=NCCCCC1)=C(/O)c1ccccc1,2.38% and -1.69%
11,CN(C)c1ccc(CN2CCc3ccccc3C2)cc1,3.25%
12,Cc1ccc(Cl)cc1-n1c(C)cc(/C=C2/C(=N)N3C=CSC3=NC2=O)c1C,-2.98%
13,Cc1ccc(-c2ccc(C3C(C#N)=C(N)Oc4[nH]nc(C)c43)o2)cc1 (stereo not drawn),8.62%
14,CC1CC(C)CN(CCCNC(=O)C2CCCN(c3nnc(N4CCCC4=O)s3)C2)C1 (stereo not drawn),45.2%
15,Cc1sc2ncn(CC(=O)N(C)C3CCCCC3)c(=O)c2c1S(=O)(=O)N1CCN(C)CC1,1.83%
16,COc1ccc(C(=O)CSc2nc(C)cc(C)c2C#N)cc1OC,-3.77%
17,CCCCOc1ccc(C(=O)Nc2nc(-c3ccc(OC)cc3)cs2)cc1,-0.615%
18,Cc1ccc(C(=O)c2sc3nc(-c4cccnc4)ccc3c2N)c(C)c1,2.23%
19,Cc1cc(C)nc(NC(=O)NS(=O)(=O)N2CCOCC2)n1,-4.01%
20,C=CCn1c(SCC(=O)Nc2nc(-c3ccccc3)ns2)nc2sc3c(c2c1=O)CCC3,4.85%
21,CCOc1ccc2ncc(S(=O)(=O)c3ccccc3)c(N3CCN(C)CC3)c2c1,-6.07%
22,C=CCN1C(=O)S/C(=C/C=C/c2ccc(N(C)C)cc2)C1=O,-0.402%
23,COc1ccc(OC)c(NC(=O)CN(c2cccc(Cl)c2)S(=O)(=O)c2ccccc2)c1,2.45%
24,O=C(O)c1ccc2c(c1)C1C=CCC1C(C1CC=CCC1)N2 (stereo not drawn),-3.44%

row,Structure (SMILES),% Inhibition @ 10 uM
1,CC1(C)CC(=O)C2=C(C1)OC(N)=C(C#N)C2c1ccccc1C(F)(F)F (stereo not drawn),-2.46%
2,CS(=O)(=O)N(Cc1ccc(Cl)cc1)c1ccc(C(=O)Nc2ccc(C(N)=O)cc2)cc1,5.12%
3,COC(=O)C1=C(C)N(Cc2ccco2)C(=O)/C1=C\c1cc(C)n(-c2ccc(C)c(C)c2)c1C,8.07%
4,CC(C)c1ccc(CNC(=O)C(=O)NCC2CCCO2)cc1 (stereo not drawn),5.52%
5,O=c1nc2s/c(=C/c3ccccc3Cl)c(=O)n2nc1Cc1ccccc1,7.93%
6,Cc1ccc(CNCCCN2CCOCC2)cc1,-1.74%
7,O=C(Cn1cnc2c(oc3ccccc32)c1=O)NC1CCCC1,-1.48%
8,CC(C)C[C@H](NC(=O)C1CCNCC1)C(=O)N[C@@H](CCc1ccccc1)C(=O)CO,-5.64%
9,CCOC(=O)c1[nH]c2c(c1-c1ccccc1)C(=O)CC(c1cccs1)C2 (stereo not drawn),1.16%
10,O=C1c2cccc3cccc(c23)C(=O)N1CC1CCN(CC(O)COCc2ccccc2)CC1 (stereo not drawn),-6.07%
11,O=c1c(N2CCCCC2)coc2ccccc12,-4.21%
12,Cc1ccc(-c2cc(C(=O)N3CCOCC3)c3ccccc3n2)c(C)c1,1.03%
13,N#CC1=C(SCC(=O)NCc2ccccc2Cl)NC(=O)CC1c1ccccc1F (stereo not drawn),-2.8%
14,Cc1ccc(C(=O)Nc2ccc(NC(=O)c3ccccc3)cc2)cc1S(=O)(=O)N1CCOCC1,9.02%
15,Cc1ccccc1CNC(=O)c1ccco1,-6.02%
16,Cc1ccc2c(=O)cc(C(=O)N(Cc3ccccc3)Cc3ccco3)oc2c1,-5.08%
17,Cc1c2cnn(CC(=O)N3CCN(C)CC3)c(=O)c2c(C)n1Cc1ccc(F)cc1,1.22%
18,Cc1ccc(-c2noc(CNc3cc(C)cc(C)c3)n2)cc1,1.86%
19,O=C1OC(COc2ccccc2)CN1c1ccc(Cl)c(Cl)c1 (stereo not drawn),6.31%
20,CCc1nnc(NC(=O)CSc2nnc(Cc3cccn3C)n2CCOC)s1,-1.84%
21,O=C(O)C1CCCN(c2c(O)nc3ccc(Cl)cc3c2-c2ccccc2)C1 (stereo not drawn),6.49%
22,O=C(O)c1ccc2c(c1)C1C=CCC1C(c1cccc3ccccc13)N2 (stereo not drawn),3.48%
23,CCOc1cc(C2C=C(c3ccc(C)cc3)Nc3ncnn32)ccc1OC(F)F (stereo not drawn),1.73%
24,CCCOc1ccccc1C(=O)N(Cc1sccc1C)C1CCS(=O)(=O)C1 (stereo not drawn),2.19%

row,Structure (SMILES),% Inhibition @ 10 uM
1,N#Cc1cc2c(nc1SCc1ccccc1Cl)CCCC2=O,-2.16%
2,Cn1c2ccc(Br)cc2c2nc3cc4ccccc4cc3nc21,1.08%
3,CCN1CCN(C(=O)C2CCCN(c3nn4cc(-c5ccc(C)cc5)nc4s3)C2)CC1 (stereo not drawn),-1.14%
4,CN(C)c1ccc(C=C2C(=O)NC(=S)NC2=O)cc1,-5.51%
5,COc1ccc(-c2csc3ncn(CC(=O)Nc4cccc5ccccc45)c(=O)c23)cc1OC,0.163%
6,O=S(=O)(Cc1ccccc1F)c1oc(-c2ccc(F)cc2)nc1S(=O)(=O)c1ccccc1,-1.44%
7,C=CCNC(=S)N(Cc1ccccc1)Cc1ccc(F)cc1,-3.21%
8,Oc1nc(/C=C/c2cccc(Cl)c2Cl)cc(C(F)(F)F)n1,-2.48%
9,COC(=O)c1c(C)[nH]c(C)c1-c1ccc(OC)cc1,-5.36%
10,COCCCn1c(=N)c(C(=O)NCc2ccccc2)cc2c(=O)n3ccccc3nc21,1.97%
11,COc1ccc(CN(C(=O)COc2ccc(Cl)cc2C)C2CCS(=O)(=O)C2)cc1OC (stereo not drawn),-5%
12,Cc1cc(Oc2nc3ccccn3c(=O)c2/C=C(\C#N)C(=O)N2CCCCC2)ccc1Cl,2.16%
13,O=C(Nc1nc(-c2ccc(S(=O)(=O)N3CCOCC3)cc2)cs1)c1cccs1,-8.53%
14,CC1(C)N=C(N)NC(Nc2ccccc2)=N1,0.162%
15,O=S(=O)(c1ccccc1)c1nnn2c1nc(NC1CCN(Cc3ccccc3)CC1)c1ccccc12,-2.14%
16,CCOC(=O)N1CCN(c2c(N3CCN(C(=O)OCC)CC3)c(=O)c2=O)CC1,-3.21%
17,CS(=O)(=O)N1CCC(C(=O)NCc2cccnc2)CC1,-6.59%
18,COc1ccc(NC(=O)/C(=C/c2ccco2)NC(=O)c2ccc(C)c(C)c2)cc1,5.67%
19,CCOc1ccccc1C1C(C(=O)OC)=CN(C)C=C1C(=O)OC,-3.23%
20,O=C(Cn1cc(S(=O)(=O)Cc2cccc(C(F)(F)F)c2)c2ccccc21)N1CCCC1,0.292%
21,COc1cc(/C=C2/SC(=O)N(C(C)C)C2=O)cc(OC)c1O,-1.6%
22,CC(=O)Nc1ccc(S(=O)(=O)Nc2ccc3c(c2)oc2ccccc23)cc1,2.44%
23,CC[C@@H](C)[C@H](NC(=O)c1ccc2ccccc2c1)C(=O)N[C@@H](CCc1ccccc1)C(=O)COCc1ccccc1,-7.36%
24,CCCCOc1ccc(CNC2=NS(=O)(=O)C(c3ccc(C(C)C)cc3)=C2C)cc1,-1.08%
